{"source": "the supplement of paper PMC10338343", "note": "± gives the standard deviation. The list shows a part of the results, in another mix than the full data.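 Also: 1 nM active piRISC with 0.1 nM target library at 33 °C single turnover.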"}
{"tested_on": "MIWI (PIWIL1) piRISC loaded with piRNA #1 (30 nt)", "experiment": "pre-steady-state target cleavage rate (min^-1); MIWI and MILI are mouse PIWI proteins and EfPiwi is from a freshwater sponge; tags in brackets are library labels; higher = faster piRNA-guided slicing of the target", "conditions": "guide: piRNA #1 5'p-UGAGGUAGUAGGUUGUAUAGUAUCCAGAGG; auxiliary factor: 500 nM mouse GTSF1", "procedure,_shortened": "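In this Cleave-'n-Seq assay, uncleaved targets were sequenced and normalised to depth and to weakly complementary targets. They came from a transcribed, DNA-blocked target RNA library […] mixed with 1 nM active affinity-purified piRISC carrying one synthetic guide, with or without 500 nM GTSF1 partner protein, in HEPES–potassium acetate buffer at 33 °C for 0–8 or 0–960 min. After three trials were pooled and k3 was capped at 0.0001 min^-1, the pre-steady-state cleavage rate was obtained from a burst-and-steady-state fit.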"}
{"sequence": "GGAGACCUAUGUAUACAUCCUACAACCUCA", "pre-steady-state target cleavage rate": "0.00223 ± 0.0016"}
{"sequence": "GCACUGGAUACUUUACAACCUACUACCUCA", "pre-steady-state target cleavage rate": "1.75 ± 0.11"}
{"sequence": "GGAGACCUUACAAUACAACGUACUACCUCA", "pre-steady-state target cleavage rate": "0.0183 ± 0.0052"}
{"sequence": "GGAGACCUAACUAAACAACGUACUACCUCA", "pre-steady-state target cleavage rate": "0.00492 ± 0.0039"}
{"sequence": "GGAGUGGAUACUAUGCAACCUACUACCUCA", "pre-steady-state target cleavage rate": "1.62 ± 0.11"}
{"sequence": "GGAGACGAUACUAUACAACCAACUACCUCA", "pre-steady-state target cleavage rate": "0.175 ± 0.017"}
{"sequence": "GGUCUGGAUACUUUACAACCUACUACGUCA", "pre-steady-state target cleavage rate": "0.238 ± 0.035"}
{"sequence": "GCUCCGGAUACUAUACAACCUACUACCUCA", "pre-steady-state target cleavage rate": "1.81 ± 0.12"}
{"sequence": "GGAGACCUAACUAUACAACCUACUAGCUGA", "pre-steady-state target cleavage rate": "0.0256 ± 0.01"}
{"sequence": "GGAGAGGAUACAAUACAACCUACAACCUCA", "pre-steady-state target cleavage rate": "0.696 ± 0.06"}
{"sequence": "GGAGACGAUACUUAUCAACCUACUACCUCA", "pre-steady-state target cleavage rate": "0.407 ± 0.058"}
{"sequence": "GGAGAGGAUACUAUACAACAUACUACCUCA", "pre-steady-state target cleavage rate": "0.386 ± 0.04"}
{"sequence": "GGAGAGGAUAGUAUACAAGCUACUACCUCA", "pre-steady-state target cleavage rate": "0.00713 ± 0.0029"}
{"sequence": "GGUCUCGAUACUAUACUACCUACUACCUCA", "pre-steady-state target cleavage rate": "1.51 ± 0.11"}
{"sequence": "CCUCUGGAUACUUUACAACCUUCUACCUCA", "pre-steady-state target cleavage rate": "0.66 ± 0.035"}
{"sequence": "GCUCUGGAAACUAUACAUCCUACUACCUCA", "pre-steady-state target cleavage rate": "1.59 ± 0.097"}
{"sequence": "GGUCAGGAUACUAUACAACCUACUACCUGA", "pre-steady-state target cleavage rate": "0.498 ± 0.051"}
{"sequence": "CCUCUGCAUACUAUACAACCUACUACGUCA", "pre-steady-state target cleavage rate": "1.62 ± 0.14"}
{"sequence": "GGAGAGCUAACUAUACAACCUACUACCUCA", "pre-steady-state target cleavage rate": "1.33 ± 0.095"}
{"sequence": "GCUCUGGAUGACUAUACAACCUACUACCUCA", "pre-steady-state target cleavage rate": "1.1 ± 0.09"}
{"sequence": "GGACUGGAUACUAUACAACCUACUUGCUCA", "pre-steady-state target cleavage rate": "0.00305 ± 0.0025"}
{"sequence": "GGAGACCUAUCUAUACAACCUACUACAUCA", "pre-steady-state target cleavage rate": "1.01 ± 0.072"}
{"sequence": "CCUCUGGAUACUAAACAACCUACUAGCUCA", "pre-steady-state target cleavage rate": "1.27 ± 0.1"}
{"sequence": "GGAGACCAUACAAAACAACCUACUACCUCA", "pre-steady-state target cleavage rate": "0.154 ± 0.051"}
{"sequence": "GGAGACCUUACUAUACAACCUACUACUCA", "pre-steady-state target cleavage rate": "0.924 ± 0.088"}
{"sequence": "GGAGACCAUACUAUACAACCUACUCACCUCA", "pre-steady-state target cleavage rate": "0.955 ± 0.067"}
{"sequence": "CCUCUGGAUACUAUACAACCUACUACCCCA", "pre-steady-state target cleavage rate": "1.15 ± 0.081"}
{"sequence": "GGAGACCUAUGAUAUCAACCUAGUACCACA", "pre-steady-state target cleavage rate": "< 0.0001"}
{"sequence": "GCUCUGGAUAGAAUACAACCUACUACCUCA", "pre-steady-state target cleavage rate": "1.05 ± 0.051"}
{"sequence": "GGAGUGGAUACUUUACAACCAACUACCUCA", "pre-steady-state target cleavage rate": "0.0858 ± 0.0074"}
{"sequence": "GGAGACCAUACUAUACUACGUACUACCUCA", "pre-steady-state target cleavage rate": "0.109 ± 0.016"}
{"sequence": "GGAGACCAUACUAUACAACCUAGUACCACA", "pre-steady-state target cleavage rate": "0.344 ± 0.07"}
{"sequence": "GGAGACGAUACUAUACUUGCUACUACCUCA", "pre-steady-state target cleavage rate": "0.057 ± 0.01"}
{"sequence": "CCUCUGGAUACUAUACAUCCUUCUACCUCA", "pre-steady-state target cleavage rate": "0.332 ± 0.026"}
{"sequence": "GGUCUGGAUAGUAUACAACCUACUACGUCA", "pre-steady-state target cleavage rate": "0.583 ± 0.055"}
{"sequence": "GGUCUGGAUACUAUACAAGGUACUACCUCA", "pre-steady-state target cleavage rate": "0.381 ± 0.03"}
{"sequence": "GGAGACCUAUCUAUACUACCUACUAGCUCA", "pre-steady-state target cleavage rate": "0.00936 ± 0.0028"}
{"sequence": "CCUCUGGAUAGAAUACAACCUACUACCUCA", "pre-steady-state target cleavage rate": "1.24 ± 0.066"}
{"sequence": "GGAGACCUAUCUAUACAACGUACUACGUCA", "pre-steady-state target cleavage rate": "0.0743 ± 0.014"}
{"sequence": "GCUCUGGAUUCUAUAGAACCUACUACCUCA", "pre-steady-state target cleavage rate": "0.654 ± 0.056"}
